# Assay results reported in PubChem BioAssay AID1347073 (National Center for Advancing Translational Sciences (NCATS), 2019).
# Hit rate of the full screen: of about 45,000 compounds, about 200 (0.44%) were called active. Inconclusive results (about 7%) are left out. Calls come from the whole dose curve; as a rule, active = well fitted activation curve with a large enough effect; inconclusive = small, poorly fitted or top-dose-only effect; inactive = no such curve, though single readings can be large or run the other way. This is one part of the list.
# Test: qHTS of TDP-43 Inhibitors: NCGC Sytravon Library Screen; note: 0% is about no effect; nearly all actives have a fitted effect of over 55% in size
# Conditions: yeast TDP-43 toxicity rescue, BacTiter-Glo growth, 24 h; series mostly up to 46.1 µM; growth rescue (activation): at the top concentration
# How it was run: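 TDP-43-expressing yeast, pregrown in raffinose, seeded at OD600 0.02 in galactose medium with compound for 24 hr at 30 deg C. Growth read by BacTiter-Glo luminescence, so rescue of toxicity appears as activation.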
row,SMILES,growth rescue (activation)
1,CCCCCCn1c(=O)c(Cc2ccccc2)c(O)c2ccccc21,inactive: -0.364%
2,COc1ccc(C(=O)N2CCC2(C)C(=O)NC(C)C)c(OC)c1 (stereo not drawn),inactive: 5.12%
3,CCN(CC(=O)Nc1ccc2c(c1)OCCO2)CC(=O)Nc1ccc(C)c(S(=O)(=O)N(C)C)c1,inactive: 30%
4,CCOC(=O)CC(NC(=O)c1cccc2c1C(=O)N(Cc1cccnc1)C2)c1ccc(OC(C)C)cc1 (stereo not drawn),inactive: 14.5%
5,CCOC(=O)c1cnc2c(c(C)nn2CC)c1NCCN1CCOCC1,inactive: 0.929%
6,COc1ccc(NC(=O)CSc2nnc(NC(=O)C3CCC3)s2)c(OC)c1,inactive: -0.842%
7,Cc1cccc(/C=N/NC(=O)c2cccc(NC(=O)c3ccccc3)c2)n1,inactive: 11.9%
8,N#C/C(=N\Nc1ccc(Cl)cc1)C(=N)N1CCCCCC1,inactive: 11.2%
9,C/C(N)=C(/C#N)C(=O)COC(=O)CNS(=O)(=O)c1ccc2ccccc2c1,inactive: -2.23%
10,Cc1ccc(S(=O)(=O)NC(C(=O)N2CCN(S(=O)(=O)c3cccc(F)c3)CC2)C(C)C)cc1 (stereo not drawn),inactive: 11.1%
11,O=C(c1cc(S(=O)(=O)N2CCOCC2)ccc1Cl)N1CCc2ccccc2C1,inactive: 28.9%
12,CCc1c(C)nc2c(-c3ccccc3OC)c(C)[nH]n2c1=O,inactive: -2.14%
13,O=C1NCCCC1C(=O)N/N=C/c1ccccc1[N+](=O)[O-] (stereo not drawn),inactive: -0.194%
14,CCn1c(CNC(=O)Cc2ccc(OC)cc2)nnc1SCC(=O)Nc1ccc(C(=O)O)cc1,inactive: 2.36%
15,CN(C)S(=O)(=O)c1ccc(Cl)c(NC(=O)c2ccncc2)c1,inactive: -0.558%
16,CCn1ccnc1CN(C)Cc1cn(C)nc1-c1ccccc1F,inactive: 11.1%
17,CN(C)S(=O)(=O)c1ccc(C(=O)NC(=O)CSc2nnnn2C)cc1,inactive: 17.3%
18,CC(C)C1N(C(=O)CN2CCCCC2)CCN1S(=O)(=O)c1ccccc1 (stereo not drawn),inactive: -0.544%
19,Cc1ccc(C(=O)Nc2ccc3c(c2)OCCO3)cc1S(=O)(=O)N1CCOCC1,inactive: -17.9%
20,CC(C)[C@H](NC(=O)c1ccco1)C(=O)Nc1ccc(OC(F)F)cc1,inactive: -10.5%
21,O=C(CNS(=O)(=O)c1ccccc1)N/N=C\c1ccc(Cl)cc1,inactive: 16.3%
22,COc1ccc(C(=O)O)cc1S(=O)(=O)NCCc1ccccn1,inactive: 29.4%
23,CCOC(=O)c1ccc(NC(=S)N(CCCN2CCN(CC)CC2)Cc2cccs2)cc1,inactive: -0.171%

row,SMILES,growth rescue (activation)
1,CCc1ccc(-n2cc(-c3ccc(F)cc3)[n+]3c2SCCC3)cc1,inactive: -21%
2,O=C1CCCN2N=C(SCC(=O)Nc3cccc(Cl)c3)SC2=N1,inactive: -17.2%
3,CC(C)C(=O)Nc1ccc(S(=O)(=O)Nc2ccccn2)cc1,inactive: -4.55%
4,Cc1ccc(-c2nc(N)sc2CC(=O)OCC(=O)NCCC(C)C)cc1,inactive: -8.71%
5,CC(C)NC(=O)NC(=O)CN1C(=O)NC(Cc2c[nH]c3ccccc23)C1=O (stereo not drawn),inactive: -6.73%
6,CC1=C(C)C(OCCBr)N(c2cc(O)c(Cl)cc2F)C1=O (stereo not drawn),inactive: -11.8%
7,O=C(CCNC(=O)OCc1ccccc1)NC1CCCCCC1,inactive: 3.02%
8,O=C1CN(CC(=O)Nc2ccc(SC(F)F)cc2)CCN1,inactive: -16.3%
9,CCN(CC)CCCNC(=O)c1ccc(N2CCCCC2)c(NS(=O)(=O)c2ccc(C)cc2)c1,inactive: -1.89%
10,Cn1ncc(N=Cc2ccccc2O)c1C(=O)N1CCOCC1,inactive: 32.5%
11,O=C(Cc1ccc(Cl)cc1)Nc1ccccc1C(=O)N1CCCC1,inactive: -4.61%
12,CCCSc1ncc(Cl)c(C(=O)N(Cc2ccccc2)c2ccc(OC)cc2)n1,inactive: 18.2%
13,CN1CCN(c2nnc(-c3ccc(F)cc3)c3ccccc23)CC1,inactive: -2.04%
14,NC(=O)C1CCN(CC(=O)Nc2cc(Cl)ccc2Oc2ccccc2)CC1,inactive: -2.54%
15,CC1CCC2(CC1)NC(=O)N(Cc1cccc(C(F)(F)F)c1)C2=O (stereo not drawn),inactive: 16.2%
16,CCCOC(=O)c1[nH]c2c(c1C)C(=O)CC(c1cccs1)C2 (stereo not drawn),inactive: 8.72%
17,COc1ccc(C(CNC(=O)Cc2c(F)cccc2Cl)N2CCCCC2)cc1 (stereo not drawn),inactive: 0.461%
18,COc1ccc(OCCSc2nc(-c3ccccc3)cc(=O)[nH]2)cc1,inactive: 4.55%
19,O=C(CN1CCCCC1)Nc1ccc(N2CCCCCC2)cc1,inactive: -2.19%
20,CC(NC(=O)Nc1ccc(O)cc1)(C(F)(F)F)C(F)(F)F,inactive: -6.37%
21,Cn1c(CC(=O)NNC(=O)c2ccc(Cl)nc2)nc2ccccc21,inactive: 18.4%
22,CC(=O)NCC(=O)OCC(=O)Nc1nc(-c2ccccc2)cs1,inactive: -4.48%
23,Cc1cccc(C(C(=O)NCc2ccc(F)cc2)N(C(=O)c2csnn2)C2CC2)c1 (stereo not drawn),inactive: 6.62%

row,SMILES,growth rescue (activation)
1,CC(C)N1CCN(Cc2cn[nH]c2C2CCCCC2)CC1CCO (stereo not drawn),inactive: 18.5%
2,COc1ccc(CNC(=O)c2ccc(-c3cnn(C)c3)c3ccoc23)cc1OC,inactive: 25.8%
3,CCN(CC)c1ccc(/C=C(\C#N)C(=O)c2ccc(Br)cc2)cc1,inactive: 3.58%
4,O=C(NC1CCCC1)C(c1ccncc1)N(Cc1ccccc1F)C(=O)c1csnn1 (stereo not drawn),inactive: -4.78%
5,Cc1nn(-c2ccccc2)c(C)c1C(=O)OCC(O)=C(C#N)c1nc2ccccc2[nH]1,inactive: 8.39%
6,COc1ccc(NC(=O)C(Cc2cc(C)cc(C)c2)C(C)C(=O)O)cc1 (stereo not drawn),inactive: -14.7%
7,O=C(CCc1nnc(COc2ccccc2)o1)NCc1ccccc1,inactive: 4.24%
8,COCCNC(=O)C1CCCN(C(=O)c2cc(-c3cccs3)oc2C)CC1 (stereo not drawn),inactive: 4.33%
9,COc1cc(-c2noc(CCC(=O)NC3CCCCC3)n2)cc(OC)c1OC,inactive: -21.6%
10,NC(Cc1ccc(Cl)cc1)c1csc(NC(=O)Nc2ccccc2)n1 (stereo not drawn),inactive: 6.77%
11,Cn1cc([N+](=O)[O-])c(C(=O)NNC(=O)c2ccc([N+](=O)[O-])cc2Cl)n1,inactive: 10.5%
12,O=C(NC1CC1)C1CCN(c2ncccn2)CC1,inactive: -10.7%
13,Cc1ccc(S(=O)(=O)CCC(=O)Nc2nccs2)cc1,inactive: -22.4%
14,CC1(c2ccc3noc(-c4ccccc4)c3c2)OCCO1,inactive: 20.5%
15,CC(=O)c1ccc(NC(=O)CCOc2cc(C)ccc2C)cc1,inactive: 27.3%
16,O=C(NC(c1ccccc1)c1ccccc1)c1cccc(S(=O)(=O)NCc2ccccc2)c1,inactive: 10.4%
17,COCCN(C(=O)COC(=O)/C=C/c1cccc(C(F)(F)F)c1)c1c(N)n(CC(C)C)c(=O)[nH]c1=O,inactive: 18.9%
18,CC(C)(CNC(=O)Cc1ccc(Cl)cc1Cl)N1CCCCC1,inactive: -3.07%
19,Fc1ccc(C2c3[nH]c4ccccc4c3CCN2Cc2ccoc2)cc1 (stereo not drawn),inactive: -0.103%
20,CC(Oc1ccc(Cl)cc1)c1ccn[nH]1 (stereo not drawn),inactive: 13.3%
21,CC(=O)c1cccc(NC(=S)N2CCN(CCN3C(=O)c4cccc5cccc(c45)C3=O)CC2)c1,inactive: 6.83%
22,COC(CNC(=O)c1ccc2c(c1)nc(C)n2-c1cccc(C)c1)OC,inactive: 0.854%
